Reference: the supplement of paper PMC3334620
Whole data set: some 33,000 sequences, median “E-score (-0.5 to 0.5)” near -0.032, cut for the highest 2% near 0.36. The list shows a part of the results.

What follows are sequences tested against T1, Sko1 (UniProt Q02100) (assay: PBM E-score (8-mer binding enrichment) (E-score (-0.5 to 0.5)); higher = stronger / more preferred TF binding; most listed sequences are background and not binding sites). Settings: protein concentration: 200 nM; construct: GST-full length.
T1 sequence: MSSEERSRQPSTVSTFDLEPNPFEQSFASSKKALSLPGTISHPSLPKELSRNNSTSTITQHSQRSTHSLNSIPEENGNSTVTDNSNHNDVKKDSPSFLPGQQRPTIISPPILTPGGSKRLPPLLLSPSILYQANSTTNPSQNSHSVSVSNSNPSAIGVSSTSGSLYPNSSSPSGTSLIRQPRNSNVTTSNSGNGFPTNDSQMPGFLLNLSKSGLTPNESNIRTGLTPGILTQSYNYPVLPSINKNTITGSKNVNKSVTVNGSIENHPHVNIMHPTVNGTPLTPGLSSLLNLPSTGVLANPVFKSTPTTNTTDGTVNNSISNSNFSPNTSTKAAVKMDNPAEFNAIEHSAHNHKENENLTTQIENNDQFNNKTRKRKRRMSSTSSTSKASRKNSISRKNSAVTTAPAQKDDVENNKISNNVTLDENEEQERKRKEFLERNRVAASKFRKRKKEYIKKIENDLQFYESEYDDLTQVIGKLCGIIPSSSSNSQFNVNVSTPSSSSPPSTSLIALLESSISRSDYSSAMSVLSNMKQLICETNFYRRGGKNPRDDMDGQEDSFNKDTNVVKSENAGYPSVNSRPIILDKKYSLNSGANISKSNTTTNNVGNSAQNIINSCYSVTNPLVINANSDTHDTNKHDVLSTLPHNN
Method in brief: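 E-scores (a modified Wilcoxon-Mann-Whitney statistic) were assigned by the Universal PBM Analysis Suite to every ungapped eight-base word pooled with its reverse complement. The input came from universal all-10-mer Agilent arrays made double-stranded by primer extension and probed with GST-tagged yeast transcription factors at about 100-200 nM. Fluorescent anti-GST detected bound protein, and masliner normalised the scans.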

Row | Sequence | PBM E-score
1 | CGCTTGCC | -0.171
2 | CGACGTCA | 0.486
3 | CAATTAAA | 0.182
4 | AGTAAACC | -0.205
5 | CGGACACA | -0.153
6 | ACCGAAGT | -0.0926
7 | GGGAGGAC | -0.184
8 | CCCTCAGA | -0.338
9 | ATGCCTCC | -0.118
10 | AATAGTCC | -0.172
11 | GAACCCCC | -0.488
12 | GATCGGAC | -0.124
13 | GTTACCCA | -0.0337
14 | ATATGCAC | 0.145
15 | AGGTGGTC | -0.233
16 | ATCGTTGG | -0.00227
17 | AAGTATCA | 0.0647
18 | ACCTGAGG | -0.271
19 | GCGATAGA | -0.0272
20 | AAGATTAC | 0.152
21 | ACACGCGG | -0.0951
22 | GCTACACC | -0.169
23 | ATATAGCA | 0.0531
24 | CAAACCAA | -0.0239

Row | Sequence | PBM E-score
25 | ACATGTAG | 0.164
26 | GCCTGGAA | 0.0112
27 | CGCTACCC | -0.317
28 | CAACACTG | -0.0331
29 | CGTTCAGA | -0.0912
30 | AGTACAAA | 0.00733
31 | CGGCGATA | -0.0431
32 | AAACTGCC | -0.0721
33 | CGATAACA | -0.00173
34 | ATGATGCA | 0.376
35 | ATTGCATA | 0.232
36 | CCGCAGAG | -0.426
37 | AACACGAG | 0.033
38 | ACACAAAT | 0.156
39 | AAGCATGG | -0.204
40 | AGCTAACC | -0.215
41 | ACTGATAT | -0.098
42 | ATGAGGAG | -0.099
43 | AGAAGCCA | -0.0674
44 | ATCGATGC | 0.0314
45 | CCCGTCAC | 0.189
46 | GACGATAA | 0.26
47 | AGCGGCAT | 0.014
48 | CCGACTAG | -0.303

Row | Sequence | PBM E-score
49 | AAATTTAT | 0.218
50 | CTTAATGA | 0.0753
51 | TTCACCAA | 0.112
52 | GTCCAGGA | -0.0496
53 | GCATTTCC | -0.0507
54 | GATCTTCC | -0.269
55 | AATCACGG | 0.0732
56 | AGTATCAC | 0.0187
57 | ATGCGGAA | -0.145
58 | CCACACGG | -0.206
59 | GTCGTACA | 0.0687
60 | CGGCACAG | -0.158
61 | GAGATTTA | 0.0465
62 | AACACTAC | 0.246
63 | AGAATCGC | 0.0254
64 | CACTATGC | 0.0454
65 | CCGCGAAA | -0.116
66 | ACGCCAAA | 0.0451
67 | CAAAGCTA | 0.063
68 | AGCCGTGC | -0.209
69 | ACTTAATA | 0.24
70 | GGATTGAC | 0.118
71 | ATACCGGC | -0.103
72 | CTGTTTAA | -0.027

Row | Sequence | PBM E-score
73 | AATCGCAA | 0.0307
74 | AGTACGGG | -0.15
75 | TAAGCTAA | 0.211
76 | CCTTCGTA | 0.143
77 | CTTTCGGC | -0.153
78 | CACATCTG | -0.193
79 | GTCGCCAC | -0.0967
80 | AAGTAAAC | 0.084
81 | AAACAAAG | 0.0681
82 | ATGGATAC | 0.0157
83 | TCTGGTAA | -0.00416
84 | AGGCACCG | -0.0605
85 | GAGAGGCA | -0.221
86 | CCACACCA | 0.15
87 | CGATAGTC | 0.0804
88 | TCATTTAA | 0.191
89 | CGTGGCAA | 0.0075
90 | GTACCGAC | -0.0426
91 | AGAACTCT | -0.0315
92 | ACTAAACC | -0.0844
93 | ACGAGTGC | 0.159
94 | ATCGGCTA | 0.00533
